Measured values: PubChem BioAssay AID504333 (National Center for Advancing Translational Sciences (NCATS), 2011)
In all, about 360,000 compounds went through this assay and about 16,000 (4.4%) were called active. The inconclusive results got no clear call from the source; some entries with a clear call stand among them for comparison. The call rests on the fitted dose curve; in most records, active means well fitted inhibition curve with a large enough effect; inconclusive means small, poorly fitted or top-dose-only effect; inactive means no such curve, though single readings can be large or run the other way. A potency beside an inconclusive call is a rough fit, not a confirmed value.

Target: Bromodomain adjacent to zinc finger domain protein 2B (Homo sapiens) (UniProt Q9UIF8)
Assay: qHTS Assay for Inhibitors of BAZ2B; further: nearly all actives have a fitted effect of over 60% in size
Conditions: AlphaScreen BAZ2B-H3K14Ac peptide displacement; activity change, negative = inhibition: at 114 µM (top of the series)
Outline: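 Multi-concentration screen (max 110 uM) measuring displacement of acetylated histone H3 peptide from BAZ2B by AlphaScreen, using 50 nM protein, 50 nM peptide and 10 ug/mL streptavidin donor plus Ni-chelate acceptor beads.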
On the % scale 0 is the no-effect control and ±100 the full control effect; potency means the concentration at half of the fitted maximal effect; tags describe the fitted curve by direction and shape.

UniProt Q9UIF8, sequence (Q9UIF8 whole entry, looked up, the tested form may be a part): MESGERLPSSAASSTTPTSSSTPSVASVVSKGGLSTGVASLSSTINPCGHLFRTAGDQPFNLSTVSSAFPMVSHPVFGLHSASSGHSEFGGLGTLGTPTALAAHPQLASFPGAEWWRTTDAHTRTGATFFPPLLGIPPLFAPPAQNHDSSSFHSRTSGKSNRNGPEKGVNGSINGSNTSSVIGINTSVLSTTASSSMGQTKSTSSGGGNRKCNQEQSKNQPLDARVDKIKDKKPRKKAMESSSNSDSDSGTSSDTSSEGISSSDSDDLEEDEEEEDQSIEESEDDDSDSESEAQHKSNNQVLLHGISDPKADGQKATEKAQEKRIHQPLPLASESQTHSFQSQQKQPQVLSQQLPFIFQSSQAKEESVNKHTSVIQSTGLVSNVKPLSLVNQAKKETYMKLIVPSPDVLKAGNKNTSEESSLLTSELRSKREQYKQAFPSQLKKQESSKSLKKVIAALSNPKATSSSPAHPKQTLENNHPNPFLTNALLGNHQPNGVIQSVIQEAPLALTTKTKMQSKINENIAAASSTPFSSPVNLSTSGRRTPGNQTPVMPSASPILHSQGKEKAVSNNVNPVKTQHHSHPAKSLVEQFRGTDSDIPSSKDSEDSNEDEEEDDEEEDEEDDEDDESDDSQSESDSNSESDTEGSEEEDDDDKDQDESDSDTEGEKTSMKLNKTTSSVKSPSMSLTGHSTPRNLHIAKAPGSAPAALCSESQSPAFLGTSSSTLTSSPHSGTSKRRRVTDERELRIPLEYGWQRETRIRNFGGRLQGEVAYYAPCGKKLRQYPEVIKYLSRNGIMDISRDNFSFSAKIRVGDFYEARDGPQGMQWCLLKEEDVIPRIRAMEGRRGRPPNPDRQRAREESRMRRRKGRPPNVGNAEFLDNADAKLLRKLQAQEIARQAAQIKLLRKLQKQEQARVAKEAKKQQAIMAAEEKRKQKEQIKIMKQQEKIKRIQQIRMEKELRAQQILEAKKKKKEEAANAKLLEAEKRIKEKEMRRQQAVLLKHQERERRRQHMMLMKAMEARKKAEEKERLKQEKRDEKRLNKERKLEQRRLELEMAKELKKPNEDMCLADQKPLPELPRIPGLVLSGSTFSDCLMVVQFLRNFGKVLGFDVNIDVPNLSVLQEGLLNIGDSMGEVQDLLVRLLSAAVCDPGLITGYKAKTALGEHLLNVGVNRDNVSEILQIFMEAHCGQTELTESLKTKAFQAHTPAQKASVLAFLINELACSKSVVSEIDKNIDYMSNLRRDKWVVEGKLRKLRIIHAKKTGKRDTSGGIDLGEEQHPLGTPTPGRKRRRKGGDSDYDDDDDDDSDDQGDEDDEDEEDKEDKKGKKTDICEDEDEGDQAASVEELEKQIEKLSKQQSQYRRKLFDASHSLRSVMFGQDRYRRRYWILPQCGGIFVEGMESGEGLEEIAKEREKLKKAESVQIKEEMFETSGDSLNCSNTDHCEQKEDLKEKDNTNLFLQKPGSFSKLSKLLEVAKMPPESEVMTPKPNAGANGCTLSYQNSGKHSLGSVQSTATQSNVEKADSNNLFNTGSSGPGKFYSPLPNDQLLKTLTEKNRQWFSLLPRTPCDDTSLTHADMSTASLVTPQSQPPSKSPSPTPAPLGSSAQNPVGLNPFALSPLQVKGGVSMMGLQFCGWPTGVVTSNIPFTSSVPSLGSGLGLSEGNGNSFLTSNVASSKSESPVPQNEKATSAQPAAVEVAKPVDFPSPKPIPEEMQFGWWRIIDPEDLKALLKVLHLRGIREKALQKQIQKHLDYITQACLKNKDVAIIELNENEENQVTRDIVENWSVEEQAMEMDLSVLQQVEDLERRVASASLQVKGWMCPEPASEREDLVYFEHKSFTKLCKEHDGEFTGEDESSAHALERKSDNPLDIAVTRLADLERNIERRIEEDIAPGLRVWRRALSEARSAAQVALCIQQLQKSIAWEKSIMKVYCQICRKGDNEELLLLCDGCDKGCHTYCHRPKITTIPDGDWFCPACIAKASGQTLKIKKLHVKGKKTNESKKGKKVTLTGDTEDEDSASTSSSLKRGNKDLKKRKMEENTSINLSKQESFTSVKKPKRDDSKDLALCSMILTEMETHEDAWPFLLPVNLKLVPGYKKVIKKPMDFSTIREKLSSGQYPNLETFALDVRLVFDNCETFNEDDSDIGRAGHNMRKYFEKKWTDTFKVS

Compound | activity change, negative = inhibition | Potency
CCOc1ccc(-c2c(C#N)c(N)nc3sc(C(=O)c4ccccc4)c(N)c23)cc1 | inactive: 0.312% | 
Cc1ccccc1CC(=O)NCc1cccnc1 | inactive: -11.7% | 
O/C(=C\c1ccc2ccccc2n1)c1ccc(O)cc1O |  | inconclusive: 44.7 µM [inhibitor, partial curve]
CCCN(CCC)C1=N/C(=C\c2ccco2)C(=O)N1c1ccccc1 |  | active: 50.1 µM
CCN(CC)c1ccc(C2=NNC(=O)CC2C)cc1[N+](=O)[O-] (centres undefined) |  | inconclusive: 50.1 µM [inhibitor, partial curve]
Cc1cccc(-n2ccnc2SCC(=O)Nc2cccc3ccccc23)c1 |  | active: 15.8 µM
O=C(NNC(=O)c1cc2ccccc2cc1O)NC1CCCCC1 |  | inconclusive: 89.1 µM [inhibitor, single point]
Fc1cnc(N2CCN(c3ccccc3)CC2)nc1N1CCN(c2ccccc2)CC1 |  | inconclusive: 28.2 µM [inhibitor, partial curve]
N#Cc1c[nH]n2c(NC3CCCCC3)c(-c3ccc(F)cc3)nc12 | inactive: -2.79% | 
N#C/C(=C\c1ccccc1[N+](=O)[O-])C(=O)NC1CCCCC1 |  | inconclusive: 63.1 µM [inhibitor, partial curve]
COc1ccc(-c2nc3nc(C)cc(C)n3c2Nc2c(C)cccc2C)cc1 |  | inconclusive: 3.98 µM [inhibitor, full curve]
Nc1nc(NC(=O)Cc2ccccc2)nn1-c1ccccc1 |  | active: 31.6 µM
Cc1cccc(-c2cc(C(=O)NCc3ccccn3)c3ccccc3n2)c1 | inactive: 0.115% | 
COc1ccc(Nc2nc(C(=O)NCc3ccco3)cs2)cc1 |  | active: 79.4 µM
NC(=O)CSc1nnc(-c2ccc(S(=O)(=O)N3CCCC3)cc2)o1 | inactive: -0.403% | 
CC1=C(C(=O)Nc2cccnc2)C(c2ccc(F)cc2)n2nc(-c3cccc(C)c3)nc2N1 (centres undefined) | inactive: 0.287% | 
C/C(=N\Nc1ccc(S(N)(=O)=O)cc1[N+](=O)[O-])c1cccs1 |  | inconclusive: 89.1 µM [inhibitor, single point]
O=C(CCl)Nc1ccc(Sc2ccc(NC(=O)CCl)cc2)cc1 |  | inconclusive: 44.7 µM [inhibitor, partial curve]
Nc1ccc(Cl)c(S(=O)(=O)Nc2cccc(Cl)c2)c1 |  | inconclusive: 70.8 µM [inhibitor, single point]
CCC1Nc2ncnc(N3CCN(c4ccccc4)CC3)c2N(Cc2ccc(C)cc2)C1=O (centres undefined) |  | inconclusive: 50.1 µM [inhibitor, partial curve]
Nc1nnc(SCC(=O)Nc2sc3c(c2C(=O)c2ccccc2)CCCC3)s1 |  | inconclusive: 44.7 µM [inhibitor, partial curve]
O=[N+]([O-])c1ccccc1/C=N\N1CCN(c2ccccc2)CC1 |  | active: 17.8 µM
CCn1c(SCC(=O)Nc2oc(-c3ccccc3)c(-c3ccccc3)c2C#N)nnc1-c1cc(OC)cc(OC)c1 |  | inconclusive: 89.1 µM [inhibitor, single point]
CCC1C(=O)N(c2nc(C)cc(C)n2)N=C1C (centres undefined) |  | inconclusive: 70.8 µM [inhibitor, single point]
Cc1[nH]c2ccccc2c1/C=N/NC(=O)c1cccc(S(=O)(=O)Nc2cccc(C(F)(F)F)c2)c1 |  | inconclusive: 70.8 µM [inhibitor, single point]

Compound | activity change, negative = inhibition | Potency
COc1ccc(OCCCCN(C)Cc2ccccc2)cc1 |  | active: 70.8 µM
COc1ccc(/C=C2\Oc3cc(OCC(N)=O)ccc3C2=O)cc1OC | inactive: 1.67% | 
CCC(Sc1nc(C)cc(=O)[nH]1)C(=O)Nc1nc(-c2ccccc2)cs1 (centres undefined) |  | inconclusive: 56.2 µM [inhibitor, partial curve]
N#Cc1c(N2CCCC2)nc(N)c2c(N)nc(N3CCCC3)cc12 |  | inconclusive: 79.4 µM [inhibitor, single point]
O=S(=O)(c1ccccc1)c1nc(-c2ccccc2Cl)oc1N1CCCCCC1 | inactive: -35.1% | 
CCOc1ccc(Nc2nc(Cl)nc(N3CCN(c4ccc(OC)cc4)CC3)n2)cc1 |  | active: 8.91 µM
CC(=O)N1CCc2[nH]c3ccc(C)cc3c2C1 |  | active: 56.2 µM
COc1ccc(C(=O)N2CCN(C3CCCCC3)CC2)cc1OC |  | active: 50.1 µM
CC(C)Oc1ccc(C(=O)/C=C2/C(=O)Nc3ccccc32)cc1 |  | inconclusive: 39.8 µM [inhibitor, partial curve]
NC(=O)c1cc(N=Nc2c(N)[nH]n(-c3c(Cl)cc(Cl)cc3Cl)c2=O)ccc1Cl |  | inconclusive: 39.8 µM [inhibitor, partial curve]
CCCCn1c(CN2CCN(c3cccc(Cl)c3)CC2)nc2c1c(=O)n(C)c(=O)n2C |  | inconclusive: 28.2 µM [inhibitor, partial curve]
Cc1ccc(S(=O)(=O)N(C)c2ccc(C(=O)N(CC(C)C)C3CCS(=O)(=O)C3)cc2)cc1 (centres undefined) | inactive: -37% | 
CC(=O)c1ccc(OCC(O)Cn2nnc3ccccc32)cc1 (centres undefined) | inactive: -18.6% | 
CCCCc1ccc(-n2c(Cc3cccs3)n[nH]c2=S)cc1 |  | inconclusive: 28.2 µM [inhibitor, full curve]
O=C(Nc1ccc(N2CCOCC2)cc1)c1ccc(Cl)nc1 |  | inconclusive: 89.1 µM [inhibitor, single point]
COc1ccc(OC)c(CNS(=O)(=O)c2cc(CN3C(=O)c4cccnc4C3=O)ccc2OC)c1 |  | inconclusive: 79.4 µM [inhibitor, single point]
Cc1cccc(NC(=O)CNC(=O)c2cccc(-n3cccc3)c2)c1C |  | active: 14.1 µM
COc1cc(NC(=S)N2CCCC(C)C2)c(OC)cc1Cl (centres undefined) |  | inconclusive: 79.4 µM [inhibitor, single point]
Cc1ccc(NC(Cc2cc(C)no2)c2ccccc2)cc1 (centres undefined) |  | inconclusive: 50.1 µM [inhibitor, partial curve]
Cc1nc2ccc(NC(=O)c3ccc(Cl)c([N+](=O)[O-])c3)cc2s1 | inactive: 15% | 
COc1cc2c(cc1OC)/C(=C/C(=O)c1ccc(C)cc1)NCC2 |  | inconclusive: 50.1 µM [inhibitor, partial curve]
COc1nc(C)cc(C)c1S(=O)(=O)c1ccc(Cl)cc1 |  | inconclusive: 89.1 µM [inhibitor, single point]
COc1ccc(NC2c3ncccc3C(=O)N2Cc2cccs2)cc1 (centres undefined) |  | active: 70.8 µM
CCN(c1ccccc1)S(=O)(=O)c1ccc(C(=O)N(CCN(C)C)c2nc3c(F)cc(F)cc3s2)cc1 | inactive: -14.6% | 
CCOc1cc(/C=C2\CCCc3c2nc2ccccc2c3C(=O)O)ccc1OC |  | active: 79.4 µM

Compound | activity change, negative = inhibition | Potency
CCCC(=O)Nc1ccc2nn(-c3ccc(OC)cc3)nc2c1 | inactive: -4.6% | 
Cn1c(C(=O)NCCN2CCCCCC2)cc2c(=O)n(C)c3ccccc3c21 |  | inconclusive: 3.98 µM [inhibitor, single point]
CCCCOc1ccc(C(=O)N/C(=C/c2cccc([N+](=O)[O-])c2)C(=O)O)cc1 |  | inconclusive: 112 µM [inhibitor, partial curve]
Cc1ccc(NC(=O)CN2CCc3cc4c(cc3C2C)OCCCO4)cc1 (centres undefined) |  | inconclusive: 70.8 µM [inhibitor, single point]
O=C(CSc1ccc(-c2ccco2)nn1)NCc1ccccc1 |  | inconclusive: 79.4 µM [inhibitor, single point]
COc1ccc(N=C2S/C(=C\c3ccc(Cl)c([N+](=O)[O-])c3)C(=O)N2CCN(C)C)cc1 |  | active: 15.8 µM
Cn1cccc1/C=N/NC(=O)CNc1ccc2ccccc2c1 |  | active: 25.1 µM
CC(C)c1ccc(S(=O)(=O)/N=C2\C=C(NS(=O)(=O)c3ccccc3)C(=O)c3ccccc32)cc1 |  | active: 7.08 µM
O=C(COC(=O)c1ccc(Cl)nc1)Nc1cc(S(=O)(=O)N2CCCCC2)ccc1Cl | inactive: -6.57% | 
O=C1NC(=Nc2ccccc2Cl)S/C1=C\c1cccc([N+](=O)[O-])c1 |  | active: 50.1 µM
O=C(CC(NCc1ccccn1)C(=O)O)Nc1ccccc1Cl (centres undefined) |  | active: 2.82 µM
COC1=C/C(=C/c2c(N)n3nc(CC(=O)N4CCOCC4)sc3nc2=O)C=CC1=O |  | inconclusive: 50.1 µM [inhibitor, partial curve]
O=C(C#Cc1ccccc1)c1cccc([N+](=O)[O-])c1 |  | inconclusive: 20 µM [inhibitor, full curve]
O=c1nc2s/c(=C\c3ccco3)c(=O)n2nc1Cc1ccc(F)cc1 |  | active: 22.4 µM
COC(=O)C1=C(C)N(C)C(=O)/C1=C\c1cccs1 |  | inconclusive: 50.1 µM [inhibitor, partial curve]
O=C(O)c1c(-n2cccc2)sc2c1CCCC2 | inactive: -25.2% | 
COc1ccc(Cl)cc1-n1cc(-c2ccccc2)nc1SCC(=O)Nc1ccc(C)cc1 |  | inconclusive: 12.6 µM [inhibitor, partial curve, poor fit]
CN1CCN(C(=O)/C=C/c2cn(-c3ccccc3)nc2-c2ccc3c(c2)OCCO3)CC1 |  | inconclusive: 89.1 µM [inhibitor, single point]
Cc1cccc(OCCSc2nnc(-c3cccs3)o2)c1 | inactive: 438% | 
COc1ccc(C(=O)N/N=C(\C)CC(=O)Nc2ccc3c(c2)OCO3)cc1 | inactive: -1.85% | 
CCC(C)NC(=O)CCn1c(-c2ccc(F)cc2)cc(C(C)=O)c1C (centres undefined) |  | inconclusive: 56.2 µM [inhibitor, partial curve]
CCN(CCNC(=O)C1=C(C)C(=O)OC12CCC(C)CC2)c1ccccc1 (centres undefined) |  | inconclusive: 79.4 µM [inhibitor, partial curve]
CCc1ccc2oc(-c3ccc(C)c(NC(=O)/C=C/c4ccco4)c3)nc2c1 | inactive: -12.5% | 
C/C=C/c1ccc(OCCCCN(C)Cc2ccccc2)c(OC)c1 |  | active: 50.1 µM
